# The campaign covered roughly 150,000 compounds. About 540 (0.36%) showed an effect of 50% or more. Some of the results follow.
# System: Plasmodium falciparum
# Experiment: Primary screen in NF54 nanoGlo assay, in single point, at 2uM, 72h; a lower Z score goes with more inhibition
# Type: functional, Erythrocyte
# Settings: timepoint 72 hour
SMILES,% Inhibition [%],Z score
CN(Cc1ccccc1)C(=O)CNC(=O)[C@@]1(C)CC1(Cl)Cl,10,-1.82
CC1CC(=O)CCC1C(=O)Nc1ccc2[nH]ccc2c1 (configuration not stated),11,-1.4
COCCn1c(-c2nc(C(=O)Nc3nccs3)cs2)cc2ccccc21,15,-2.04
N#Cc1ccncc1NCC1(C(N)=O)CCOCC1,16,-1.76
O=C(CN1CCC(O)CC1)N[C@H]1CCCc2ccccc21,-7,1.12
Cc1nc2ccc(Cl)cn2c1CN1CCC[C@](C)(C#N)C1,-1,0.16
Nc1c(S(=O)(=O)c2ccc(Cl)cc2)c2nc3ccccc3nc2n1Cc1ccc(F)cc1,-2,0.21
Cc1cnn(C)c1S(=O)(=O)N1CCC=C(c2cn(C(C)C)nn2)CC1,-3,0.41
CCNC(=O)CONC(=O)CCCc1ccccc1,-5,0.6
Cc1cc(C(=O)NCCc2cccs2)[nH]n1,-5,0.95
CN1CCC[C@@H]1CCNC(=O)c1cccc(-c2nc(C(C)(C)C)n[nH]2)c1,-11,1.79
Cc1cc(C(=O)NCC(=O)NC(C)(C)C)no1,37,-5.05
CN(C1CCOCC1)S(=O)(=O)N1CCC(N2CCc3cc(F)ccc32)CC1,-18,2.31
CC(C)N(C[C@H]1CCC(=O)N1)C(=O)c1cn(C)c2ccccc12,-3,0.43
CCCS(=O)(=O)N(C)[C@@H](C)c1ccccc1O,-7,0.76
C[C@@H](CCc1ccccc1)NC(=O)c1cccs1,6,-0.9
Cc1nn(C)c(S(=O)(=O)NCC(C)(C)CCCO)c1C(F)F,0,0.04
CCCc1nnc(N2C[C@H]3CC[C@@H](C2)[C@H]3OC)o1,-1,0.24
COc1ccc2c(c1)CCc1c(C(=O)Nc3cc(Cl)ccc3OC)n[nH]c1-2,1,-0.19
CCOC(=O)c1c(C)[nH]c(CCC(=O)NCCc2c(C)noc2C)c1C,0,-0.05
CCCCn1nc(-c2ccc(C)o2)nc1[C@H]1CCOC1,-9,1.75
CCN1CC2(CCN(C(=O)CCCOc3ccccc3)CC2)CC1=O,-17,3.24

SMILES,% Inhibition [%],Z score
FC(F)(F)c1cccc(C2(c3nnc(-c4ccc5c(c4)OCCO5)o3)CCOCC2)c1,0,-0.04
CC(C)n1nnc2ccc(-c3noc(-c4ccccc4)n3)cc21,-20,2.19
Cn1nc(CO)c2c1CCN(Cc1cn3ccccc3n1)C2,-4,0.56
c1csc(NCCCOC2CCCC2)n1,-10,1.6
O=C(Cc1cccs1)NC[C@H](O)c1ccc2c(c1)CCO2,-27,3.45
FCCn1cc(-c2noc(C3CCN(c4cnccn4)CC3)n2)cn1,-8,0.86
CC(C)(C)c1cc(NC(=O)c2ccc(Br)o2)n([C@H]2CCS(=O)(=O)C2)n1,-11,0.97
CC(=O)N1CCN(CC(=O)Nc2c(C#N)c(C)c(C)n2C2CCCCC2)CC1,-3,0.25
Cc1ccc(O)c(S(=O)(=O)N2c3ccccc3C[C@H]2C(N)=O)c1,-9,1.19
CCc1ccc(CN(C)CCn2nc(C)cc2C)nc1,-14,1.93
O=C(COc1ccc2c(c1)OCO2)Nc1nc(-c2ccccc2)cs1,-19,3.6
CC[C@@H](C(=O)Nc1nccs1)N1CCC(CNC(=O)C2CCC2)CC1,-2,0.38
Nc1cc2c(cc1-n1cnnn1)OCCO2,-2,0.36
N#Cc1cccc(C(=O)Nc2ccc(N3CCCN(Cc4ccc(F)c(F)c4)C3=O)cc2)c1,-5,0.51
COc1ccc(NC(=O)c2c(F)c(F)c3c(c2F)N(Cc2ccccc2)CCS3(=O)=O)cc1,-6,0.85
CC(C)(C)[C@@H](O)CNc1nnc(C(F)(F)F)s1,-3,0.52
CCOCc1ccccc1NC(=O)c1nc(-c2cccc(Cl)c2)[nH]c1C,4,-0.59
NC(=O)N(Cc1cccc(Br)c1)CC1(O)CCCCC1,6,-0.76
CC(C)Cc1nc(CC(F)(F)F)n(-c2cccc3cccnc23)n1,15,-1.93
CNC(=O)CNC(=O)c1cccc(NC(=O)[C@]2(C)CCCO2)c1,-2,0.16
O=c1c2ccccc2ncn1C[C@@H](O)CC1CCCC1,-7,0.85
CC(C)N(CCC(N)=O)S(=O)(=O)NCc1ccccc1,-13,2.1

SMILES,% Inhibition [%],Z score
C=CCC(C(=O)N1CCC(O)(CO)C1)c1ccccc1 (configuration not stated),-12,2.4
Nc1nccc(-c2ccc(-n3cncn3)cc2)n1,-2,0.22
CC(C)n1ccc(Cn2cnc(C#N)n2)n1,4,-0.68
O=C(O)C1Cc2c([nH]c3ccccc23)C(/C=C/c2ccccc2)N1 (configuration not stated),36,-0.97
CC(=O)N1CCN(C(=O)c2nn(-c3ccc(C)cc3)c(=O)n(Cc3ccc(C(F)(F)F)cc3)c2=O)CC1,-1,0.1
O=C(c1cc2ccccc2o1)N1Cc2cncnc2C1,-16,2.75
O=C1CN(S(=O)(=O)CCC(F)(F)F)CCN1c1ccccn1,18,-2.32
Cc1cnc(C(=O)N(C)CCCc2nccn2C)cn1,-17,3.15
C[C@H]1CN(c2ncnc3ccccc23)C[C@@H]1CS(N)(=O)=O,0,0.04
Cc1ccc(-c2nc(CN[C@H]3CCc4ncnn4C3)cs2)o1,-21,1.79
COCC1CCN(S(=O)(=O)N(C)Cc2nc3cc(Cl)ccc3[nH]2)CC1,-6,0.91
NCCNCCCOc1ccc(Br)cc1Cl,1,-0.17
CN(C)CCCNC(=O)c1cccc(Cl)c1,2,-0.41
C[C@H]1C(=O)NCCN1Cc1cnns1,17,-2
COC(=O)C1CCC(Nc2ccc(C)c(C(=O)NC(C)C)c2)CC1 (configuration not stated),6,-0.65
CC(C)c1nnc(NCc2ccc3c(c2)CCO3)o1,15,-1.33
Cc1ccc(S(=O)(=O)n2cc(C)[nH]c2=O)cc1,-23,2.15
COc1cc(-c2nccn2C[C@H](C)Oc2cccnc2)cc2c1OCO2,-10,0.96
CC(C)c1ccc(C(=O)NCCCN2CCCO[C@@H](C)C2)nc1,-8,1.3
Cc1nc(CN2C[C@H]3CCC[C@@H](C2)N(C)C3)n(C)c1C,-1,0.24
Cc1nccc(-c2cccc(NC(=O)c3sccc3S(=O)(=O)N3C(C)CCCC3C)c2)n1 (configuration not stated),3,-0.41
Cc1nc(NCc2ccccc2)sc1-c1ccn(C)n1,-13,1.46

SMILES,% Inhibition [%],Z score
CO[C@H]1C[C@H]2CN(C(=O)NCc3ccc(C)cc3)[C@@H](C)C(=O)N2C1,12,-1.5
COc1ccc(C)cc1NC(=O)[C@H]1CN(S(=O)(=O)C2CC2)CC12CCCCC2,-4,0.69
Cc1ccc(Cc2nc(N3CCN(C(=O)c4ccco4)CC3)c3cnn(-c4ccccc4)c3n2)cc1,-10,1.83
Cc1noc(C)c1CO[C@H]1COCC[C@@H]1NC(=O)c1c(C)noc1C,-3,0.54
CCc1ccc(N2C(=O)N(C)C(C)(C)C2=O)nc1,-11,1.97
O=C(Cc1ncc(C(F)(F)F)cc1Cl)NCc1cccnc1,0,-0.02
CN(C(=O)CCS(C)(=O)=O)c1nsc2ccccc12,-9,1.42
CCS(=O)(=O)NCCCNC(=O)N(C)[C@@H](C)C1CC1,-7,0.69
CCOC(=O)CC1CCN(CC2CC2)CC1,-9,0.92
C[C@@H]1CN(C[C@@H]2CN(c3noc(-c4ccccc4)n3)C[C@@H]2CO)C[C@H](C)O1,-15,2.5
COc1ccc(S(=O)(=O)N2C[C@@H]3C[C@H](C2)c2c(NC(=O)c4cncnc4)ccc(=O)n2C3)cc1,-8,1.5
COC(=O)Nc1ccc(F)c(Cl)c1,3,-0.45
Cc1c(Cl)cccc1NC(=O)CCNS(C)(=O)=O,-8,1.04
Cn1c(=O)c2c(=O)c(Cl)c(N)[nH]c2n(C)c1=O,-31,3.64
CC(C)OCCN(C)C(=O)Cc1ccn[nH]1,-4,0.39
CS(=O)(=O)N1CCC(C(=O)Nc2c(C(N)=O)sc3nc(C(F)F)cc(C4CC4)c23)CC1,35,-5.12
CCN1C(=O)[C@@]2(c3ccccc31)[C@@H]1C(=O)N(c3ccccc3F)C(=O)[C@@H]1[C@@H]1CCCN12,-5,0.42
N#Cc1cnc(N2CCC[C@@H]2CCC2CCCC2)cn1,-7,1.22
Cc1ccccc1C(=O)N[C@@H]1CCCC[C@H]1NC(=O)C1CCN(C(=O)c2cc(Cl)cc(Cl)c2)CC1,-10,1.67
CCn1c(-c2cccc(C(=O)Nc3cc(OC)cc(OC)c3)c2)nc2cccnc21,1,-0.11

# Reference: ChEMBL document CHEMBL4888484, “Replenishing the malaria drug discovery pipeline: Screening and hit evaluation of the MMV Hit Generation Library 1 (HGL1) against asexual blood stage Plasmodium falciparum ,using a nano luciferase reporter read-out” (2022)
